# Reference: the supplement of paper PMC8728848
# This is one part of the list.
# B1: DGL (Dioclea grandiflora), P08902 (protein)
# chain: ADTIVAVELDSYPNTDIGDPNYPHIGIDIKSIRSKSTARWNMQTGKVGTVHISYNSVAKRLSAVVSYSGSSSTTVSYDVDLNNVLPEWVRVGLSATTGLYKETNTILSWSFTSKLKTNSIADENSLHFSFHKFSQNPKDLILQGDAFTDSDGNLELTKVSSSGDPQGNSVGRALFYAPVHIWESSAVVASFDATFTFLIKSPDREPADGITFFIANTDTSIPSGSGGRLLGLFPDAN
# Columns and labels:
# Assay in all cases: glycan array binding signal (z-score within array); higher = stronger binding
# Conditions in all cases: glycan notation: IUPAC condensed, linker removed
# [1] = biological target: Gal(b1-4)GlcNAc(b1-3)[GlcNAc(b1-6)]Gal(b1-4)GlcNAc
# Procedure, shortened: (§1)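 The binding signal is a Z-score computed within each array and averaged over linkers. Arrays of the same protein sequence at different concentrations or buffers were also averaged together. Data originate from 3228 arrays in the Consortium for Functional Glycomics database, kept only where the protein sequence was available.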
# [2] = biological target: Gal(b1-4)GlcNAc(b1-6)Gal(b1-4)GlcNAc
# Procedure, shortened: as §1
# [3] = biological target: Gal(b1-4)GlcNAc(b1-6)Gal(b1-4)GlcNAc(b1-6)GalNAc
# Procedure, shortened: as §1
# [4] = biological target: Gal(b1-4)GlcNAc(b1-6)GalNAc
# Procedure, shortened: as §1
# [5] = biological target: Gal(b1-4)GlcNAc(b1-6)[Gal(b1-3)]GalNAc
# Procedure, shortened: as §1
# [6] = biological target: Gal3S(b1-3)GalNAc
# Procedure, shortened: as §1
# [7] = biological target: Gal3S(b1-3)GlcNAc
# Procedure, shortened: as §1
# [8] = biological target: Gal3S(b1-3)[Fuc(a1-4)]GlcNAc
# Procedure, shortened: as §1
# [9] = biological target: Gal3S(b1-4)Glc
# Procedure, shortened: as §1
# [10] = biological target: Gal3S(b1-4)Glc6S
# Procedure, shortened: as §1
# [11] = biological target: Gal3S(b1-4)GlcNAc
# Procedure, shortened: as §1
# [12] = biological target: Gal3S(b1-4)GlcNAc6S
# Procedure, shortened: as §1
# [13] = biological target: Gal3S(b1-4)[Fuc(a1-3)]Glc
# Procedure, shortened: as §1
# [14] = biological target: Gal3S4S(b1-4)GlcNAc
# Procedure, shortened: as §1
# [15] = biological target: Gal3S6S(b1-4)GlcNAc
# Procedure, shortened: as §1
# [16] = biological target: Gal3S6S(b1-4)GlcNAc6S
# Procedure, shortened: as §1
# [17] = biological target: Gal4S(b1-4)GlcNAc
# Procedure, shortened: as §1
# [18] = biological target: Gal4S6S(b1-4)GlcNAc
# Procedure, shortened: as §1
# [19] = biological target: Gal6S(b1-4)Glc
# Procedure, shortened: as §1
# [20] = biological target: Gal6S(b1-4)Glc6S
# Procedure, shortened: as §1
# [21] = biological target: Gal6S(b1-4)GlcNAc
# Procedure, shortened: as §1
# [22] = biological target: Gal6S(b1-4)GlcNAc6S
# Procedure, shortened: as §1
# [23] = biological target: GalNAc(a1-3)Gal
# Procedure, shortened: as §1
# [24] = biological target: GalNAc(a1-3)GalNAc
# Procedure, shortened: as §1
# [25] = biological target: GalNAc(b1-3)Gal
# Procedure, shortened: as §1
# [26] = biological target: GalNAc(b1-3)Gal(a1-4)Gal(b1-4)GlcNAc
# Procedure, shortened: as §1
# [27] = biological target: GalNAc(b1-3)Gal(a1-4)Gal(b1-4)GlcNAc(b1-3)Gal(b1-4)Glc
# Procedure, shortened: as §1
# [28] = biological target: GalNAc(b1-3)GalNAc
# Procedure, shortened: as §1
# [29] = biological target: GalNAc(b1-4)GlcNAc
# Procedure, shortened: as §1
# [30] = biological target: GalNAc(b1-4)GlcNAc(b1-2)Man(a1-3)[GalNAc(b1-4)GlcNAc(b1-2)Man(a1-6)]Man(b1-4)GlcNAc(b1-4)GlcNAc
# Procedure, shortened: as §1
# [31] = biological target: Glc(a1-4)Glc
# Procedure, shortened: as §1
# [32] = biological target: Glc(a1-6)Glc(a1-6)Glc
# Procedure, shortened: as §1
# [33] = biological target: Glc(b1-4)Glc
# Procedure, shortened: as §1
# [34] = biological target: Glc(b1-6)Glc
# Procedure, shortened: as §1
# [35] = biological target: GlcA(b1-3)Gal
# Procedure, shortened: as §1
# [36] = biological target: GlcA(b1-3)GlcNAc
# Procedure, shortened: as §1
# [37] = biological target: GlcA(b1-6)Gal
# Procedure, shortened: as §1
# [38] = biological target: GlcNAc(a1-3)Gal(b1-4)GlcNAc
# Procedure, shortened: as §1
# [39] = biological target: GlcNAc(a1-4)Gal(b1-3)GlcNAc
# Procedure, shortened: as §1
# [40] = biological target: GlcNAc(a1-4)Gal(b1-4)GalNAc
# Procedure, shortened: as §1
# [41] = biological target: GlcNAc(a1-4)Gal(b1-4)GlcNAc
# Procedure, shortened: as §1
# [42] = biological target: GlcNAc(a1-4)Gal(b1-4)GlcNAc(b1-3)Gal(b1-4)Glc
# Procedure, shortened: as §1
# [43] = biological target: GlcNAc(a1-4)Gal(b1-4)GlcNAc(b1-3)Gal(b1-4)GlcNAc
# Procedure, shortened: as §1
# [44] = biological target: GlcNAc(a1-4)Gal(b1-4)GlcNAc(b1-3)Gal(b1-4)GlcNAc(b1-3)Gal(b1-4)GlcNAc
# Procedure, shortened: as §1
# [45] = biological target: GlcNAc(a1-4)Gal(b1-4)GlcNAc(b1-3)Gal(b1-4)[Fuc(a1-3)]GlcNAc(b1-3)Gal(b1-4)[Fuc(a1-3)]GlcNAc
# Procedure, shortened: as §1
binder,measurement,setting,value
B1,glycan array binding signal (z-score),[1],-0.173
same,glycan array binding signal (z-score),[2],-0.173
same,glycan array binding signal (z-score),[3],-0.159
same,glycan array binding signal (z-score),[4],-0.162
same,glycan array binding signal (z-score),[5],-0.176
same,glycan array binding signal (z-score),[6],-0.18
same,glycan array binding signal (z-score),[7],-0.176
same,glycan array binding signal (z-score),[8],-0.182
same,glycan array binding signal (z-score),[9],-0.171
same,glycan array binding signal (z-score),[10],-0.18
same,glycan array binding signal (z-score),[11],-0.169
same,glycan array binding signal (z-score),[12],-0.17
same,glycan array binding signal (z-score),[13],-0.169
same,glycan array binding signal (z-score),[14],-0.179
same,glycan array binding signal (z-score),[15],-0.167
same,glycan array binding signal (z-score),[16],-0.159
same,glycan array binding signal (z-score),[17],-0.17
same,glycan array binding signal (z-score),[18],-0.183
same,glycan array binding signal (z-score),[19],-0.174
same,glycan array binding signal (z-score),[20],-0.152
same,glycan array binding signal (z-score),[21],-0.178
same,glycan array binding signal (z-score),[22],-0.169
same,glycan array binding signal (z-score),[23],-0.176
same,glycan array binding signal (z-score),[24],-0.173
same,glycan array binding signal (z-score),[25],-0.173
same,glycan array binding signal (z-score),[26],-0.171
same,glycan array binding signal (z-score),[27],-0.179
same,glycan array binding signal (z-score),[28],-0.179
same,glycan array binding signal (z-score),[29],-0.169
same,glycan array binding signal (z-score),[30],-0.179
same,glycan array binding signal (z-score),[31],-0.163
same,glycan array binding signal (z-score),[32],-0.179
same,glycan array binding signal (z-score),[33],-0.17
same,glycan array binding signal (z-score),[34],-0.169
same,glycan array binding signal (z-score),[35],-0.181
same,glycan array binding signal (z-score),[36],-0.173
same,glycan array binding signal (z-score),[37],-0.182
same,glycan array binding signal (z-score),[38],-0.175
same,glycan array binding signal (z-score),[39],-0.153
same,glycan array binding signal (z-score),[40],-0.148
same,glycan array binding signal (z-score),[41],-0.176
same,glycan array binding signal (z-score),[42],-0.176
same,glycan array binding signal (z-score),[43],-0.156
same,glycan array binding signal (z-score),[44],-0.167
same,glycan array binding signal (z-score),[45],0.009
